Measurements from PubChem BioAssay AID1159614 (National Center for Advancing Translational Sciences (NCATS), 2016).
Screen size: about 45,000 compounds; about 65 (0.1%) were called active. Calls follow the shape of the dose curve; as a rule, active = well fitted activation curve with a large enough effect; inconclusive = small, poorly fitted or top-dose-only effect; inactive = no such curve, though single readings can be large or run the other way. This is one part of the list.

What follows are molecules tested against Galactocerebrosidase (Homo sapiens) (UniProt P54803) (assay: A Novel Cell-Based Assay to Identify Small Molecules for B -Galactocerebrosidase). Details: 145M-Twi-hGALC-G270D cells (Twitcher mouse brain line with human GALC G270D), HMU-beta-Gal fluorescence, 48 h; series mostly up to 57.5 µM; activation: at the top concentration.
How it was run: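 Fluorogenic HMU-b-Gal hydrolysis (0.1 mM final, pH 5.2 citrate-phosphate with 1 mg/mL sodium taurocholate; carbonate stop buffer) measures mutant GALC activity after compound treatment of live 145M-Twi Twitcher brain cells stably carrying human GALC-G270D, with wild-type GALC line alongside; activation sought.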
Also: 0% is about no effect; nearly all actives have a fitted effect of over 65% in size.

Chain of UniProt P54803 (P54803 whole entry, looked up): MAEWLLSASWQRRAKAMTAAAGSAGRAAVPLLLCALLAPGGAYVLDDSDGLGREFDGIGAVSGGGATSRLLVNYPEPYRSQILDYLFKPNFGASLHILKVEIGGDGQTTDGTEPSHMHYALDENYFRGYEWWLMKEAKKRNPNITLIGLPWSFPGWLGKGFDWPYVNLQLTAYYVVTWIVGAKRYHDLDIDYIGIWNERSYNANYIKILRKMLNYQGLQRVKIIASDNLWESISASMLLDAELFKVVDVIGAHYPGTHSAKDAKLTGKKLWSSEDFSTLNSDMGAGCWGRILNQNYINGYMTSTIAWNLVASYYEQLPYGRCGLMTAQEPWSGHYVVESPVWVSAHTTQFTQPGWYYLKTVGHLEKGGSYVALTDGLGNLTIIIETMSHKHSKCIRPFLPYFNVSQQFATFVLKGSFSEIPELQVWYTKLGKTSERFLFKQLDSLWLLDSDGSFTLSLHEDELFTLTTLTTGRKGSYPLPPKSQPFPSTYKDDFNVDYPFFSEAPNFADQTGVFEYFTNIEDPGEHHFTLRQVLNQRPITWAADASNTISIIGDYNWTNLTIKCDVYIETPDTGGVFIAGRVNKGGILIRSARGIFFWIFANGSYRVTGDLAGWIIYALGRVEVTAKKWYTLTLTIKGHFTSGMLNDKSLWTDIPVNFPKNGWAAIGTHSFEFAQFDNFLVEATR

activation, inactive:
Cc1ccc(NC(=O)CN2C=NS(=O)(=O)c3ccccc32)cc1 -10.2%
CCOC(=O)c1cnc2ccc(Br)cc2c1NCCN1CCOCC1 -28.2%
Cc1ccc(CCNC(=O)Cn2c(-c3cccs3)cc3ccccc32)cc1 1.11%
Cc1cccc(CNC(=O)c2cc3cc(S(=O)(=O)N4CCCCC4)ccc3n2C)c1 -1.2%
O=C(Nc1ccc(C(=O)OCc2cc(=O)n3nc(C4CC4)sc3n2)cc1)c1ccccc1 -16.7%
Clc1ccc2c(c1)-n1cc(-c3ccccc3)nc1CO2 -4.87%
CCc1ccc(S(=O)(=O)c2cn(Cc3ccccc3)c3cc(N4CCCC4)c(F)cc3c2=O)cc1 -12.4%
Cc1ccc(N2CC(NC(=O)c3ccccc3C(F)(F)F)CC2=O)cc1C (stereo not given) -15%
COc1ccc(Cl)cc1S(=O)(=O)Nc1ccc2[nH]c(=O)[nH]c2c1 -27.4%
Cc1ccc(Cl)cc1N1CCN(C(=O)CCS(=O)(=O)c2cc(Br)cc3c2N(C(=O)C2CC2)CC3)CC1 -19.3%
COc1ccc(NC(=O)CSc2oc(-c3cccs3)nc2S(=O)(=O)c2ccccc2)c(OC)c1 -8.72%
Cc1ccc(Cn2c(SCc3ccc(C(=O)N4CCCCC4)cc3)nc3ccncc32)cc1 -25.9%
CCC(=O)OC1=C(C(C)=O)N(Cc2ccccc2)S(=O)(=O)c2ccccc21 -9.64%
CCc1ccccc1N1C(=O)CN(S(=O)(=O)CC)CC1(C)C(=O)NC1CCCCC1 (stereo not given) 0.614%
CCc1ccccc1NC(=O)Cn1nc(CC)n2c(cc3sccc32)c1=O -19.6%
Cc1ccccc1NC(=O)C1CCN(S(=O)(=O)c2c(C)noc2/C=C/c2ccco2)CC1 -13.1%
COc1ccc(C(=O)NCc2ccc3c(c2)CCN3C(C)=O)c(OC)c1 -13.9%
COc1ccc(NC(=O)C2CCCN(c3ncnc4onc(C)c34)C2)cc1OC (stereo not given) -9.02%
CCC(=O)N1CCc2cc(CNC(=O)c3cccc(N(C)C)c3)ccc21 -9.98%
CCOc1ccc(OCC)c(NC(=O)c2nnn(CC(=O)Nc3cc(Cl)ccc3OC)c2N)c1 -4.13%
COc1ccc(-c2cc(C(=O)N3CCCCC3C)no2)cc1OC (stereo not given) -9.63%
NC(=O)c1ccc([N+](=O)[O-])cc1Cl -10.9%
CCOc1ccccc1C1C(C(=O)Nc2ccccc2)=C(C)Nc2nc(SCC(=O)c3ccc(C)cc3)nn21 (stereo not given) 1.34%
CC1CCCCN1CCCNC(=O)CN1C(=O)c2cccnc2Oc2ccc(Cl)cc21 (stereo not given) 14.6%
COc1ccc(C(=O)c2sc3nc4c(c(C(F)(F)F)c3c2N)CN(C(C)=O)CC4)cc1OC -13.8%
CN(C(=O)CSc1nc(-c2ccccc2)no1)c1ccc(F)cc1 -6.71%
O=C(COc1ccccc1)Nc1nnc(S(=O)(=O)Nc2ccccc2)s1 -10%
Cc1ccc(Cl)cc1N1CCN(S(=O)(=O)c2cn(C)c(C)n2)CC1 -21%
Cc1ccc(-c2nnc(Nc3cccc(Cl)c3)c3ccccc23)cc1S(=O)(=O)N1CCN(C)CC1 -8.79%
CCN(Cc1ccccc1)c1ncnc2c1cnn2-c1ccc(F)cc1 -10.7%
O=C1OCCN1/N=C/c1ccc([N+](=O)[O-])o1 -16.7%
CCOc1ccccc1NC(=O)Nc1nnc(N2CCCC(C)C2)s1 (stereo not given) -9.69%
O=C(c1ccc(Cl)cc1)N1CCN(CCc2ccncc2)CC1 -11.8%
CCOC(=O)N1CCN(C(=O)c2ccc3c(c2)N(Cc2ccccc2F)C(=O)c2ccccc2S3(=O)=O)CC1 -1.22%
CCOc1ccc(CNC(=O)C2CCN(C(=O)c3ccc(-n4ccc5ccccc54)s3)CC2)cc1 -18%
Cc1cccc(NC(=O)Cn2c(=O)n(CCCCCC(=O)NCc3ccccc3)c(=O)c3sccc32)c1 -8.93%
CCOc1ccc(Nc2cc(C(=O)NCc3ccccc3Cl)c3ccccc3n2)cc1 2.74%
CCOC(=O)c1cc2c(=O)n3ccccc3nc2n(C)c1=NC(=O)c1c(-c2c(F)cccc2Cl)noc1C -3.07%
O=C(Nc1ccc(Br)c(Cl)c1)c1ccc(C(=O)Nc2ccc(Br)c(Cl)c2)cc1 -9.78%
CCc1ccc(NC(=O)CSc2nc3c(c(=O)[nH]2)CN(Cc2ccc4c(c2)OCO4)CC3)cc1 -10.2%
O=C(CCCc1ccccc1)NC1CC(=O)N(c2cccc(F)c2)C1 (stereo not given) -14.9%
Cc1ccc(C)c(N2CCN(S(=O)(=O)c3c(C(=O)N4CCC(C)CC4)c(C)n(C)c3C)CC2)c1 -6.93%
O=C(COc1ccccc1)NCC(c1ccc(Cl)cc1)N1CCCCC1 (stereo not given) -29.4%
COc1ccc(-c2nc(C(=O)Nc3cccc(C(C)=O)c3)nn2-c2ccccc2Cl)cc1 -21.8%
COc1ccc(CNC(=O)CCc2nnc3n(C)c(=O)c4sccc4n23)cc1 2.32%
COc1ccccc1CNC(=O)C(=O)NCC(c1ccco1)S(=O)(=O)c1ccc(C)cc1 (stereo not given) -20%
COC(=O)C1=C(C)N(C(C)C)C(=O)C1(NC(=O)c1ccccc1OC)C(F)(F)F (stereo not given) -14.5%
NC(N)=NN=C(/C=C/c1ccc([N+](=O)[O-])o1)/C=C/c1ccc([N+](=O)[O-])o1 -9.72%
CCCCCn1c(CCCNC(=O)c2ccc(Cl)cc2)nc2ccccc21 -6.38%
CCOC(=O)[C@H](CCc1ccccc1)N[C@H]1CS[C@H](c2cccs2)CN(CC(=O)O)C1=O -9.75%
Cc1ccccc1CCNC(=O)c1ccc(Cn2c(=O)c3cccn3c3cccnc32)cc1 -26.3%
CCc1ccc(NC(=O)c2cc(S(=O)(=O)N3CCCC(C)C3)cn2C)cc1 (stereo not given) -5.48%
O=C(NCc1ccccc1Cl)c1ccccc1NC(=O)c1nsc2ccccc12 -22.7%
COc1cc(OC)c(NC(=O)c2cnn(-c3ccccc3)c2-n2cccc2)cc1Cl -13.5%
CCOc1cc(-c2nc(-c3ccc(-c4ccccc4)nc3OCC)no2)cc(OCC)c1OCC -10.6%
CCC(=O)N1CCc2cc(Br)cc(S(=O)(=O)Nc3ccccc3C(=O)OC)c21 -5.44%
COCCCNC(=O)c1cc2c(-c3cccc(OC)c3)nn(C)c2s1 -15.5%
O=C(CSc1nccn1Cc1ccc(Cl)cc1)Nc1nc2ccccc2s1 -10.8%
CN(C)c1ccc(C(CNS(=O)(=O)c2ccc(F)cc2F)N2CCOCC2)cc1 (stereo not given) -15.3%
CCc1ccc(CN(Cc2cn[nH]c2-c2ccc(OC)cc2)C(=O)Nc2ccc(Br)cc2)cc1 -5.82%
CCN(CC)C(=O)CSc1nc2cc3c(cc2c(=O)n1CCCC(=O)NCc1ccc(OC)cc1)OCO3 0.386%
Cc1ccc(CCNC(=O)CN(c2ccc(C(C)C)cc2)S(=O)(=O)c2c(C)nn(C)c2C)cc1 -14.4%
CCOC(=O)c1c(NC(=O)c2ccc(S(=O)(=O)N(CC)CC)cc2)sc2c1CCCCC2 -2.44%
O=C(Nc1cccc(C(F)(F)F)c1)Nc1ccc2snnc2c1 -33.5%
Cc1cc(S(=O)(=O)Nc2ccc(O)c(Sc3nc4ccccc4s3)c2)ccc1Cl -4.03%
Cc1ccc(C(=O)N2CCCCC2CCN2CCCCC2)cc1 (stereo not given) -10.3%
CCn1c(SCC(=O)Nc2c(C)cccc2C)nnc1-c1nonc1NC(C)=O -1.46%
O=C(NCCC1=CCCCC1)c1ccc2c(c1)N(Cc1ccccc1)C(=O)c1ccccc1S2=O (stereo not given) -1.6%
CN(C)c1nc(N(C)C)nc(N(C)C)n1 -17%
COc1cc(NS(=O)(=O)c2cc(Br)cc3c2N(C(=O)C2CC2)CC3)cc(OC)c1 -5.42%
COc1ccccc1N1CCN(C(=O)CSc2nc3ccccc3nc2Cc2ccc(C)cc2)CC1 -4.11%
COc1ccc(-c2csc(-c3c(N)c(C(=O)c4ccccc4)n4ccccc34)n2)cc1OC -5.88%
CCS(=O)(=O)c1cccc(C(=O)Nc2ccc(-c3nc4ccccc4s3)c(O)c2)c1 -17.3%
Cc1cccc(NC(=O)Cn2c(=O)c3cccn3c3ccccc32)c1C -11.9%
Cc1ccc(O)cc1 -17.3%
CC1CCN(C(=O)Cn2c(SCC(=O)Nc3ccc(F)cc3)nc3ccccc32)CC1 -17%
Cc1ccc(CN2CCN(C3CCN(S(=O)(=O)N(C)C)CC3)C(=O)C2=O)cc1 -11.8%
COc1ccc(OC)c(CNC(=O)CSc2c3c(nc4cc(Cl)ccc24)CCCC3)c1 -5.43%
CCN(CCCNC(=O)c1nn(-c2ccc(OC)c(Cl)c2)c(=O)c2c1c1ccccc1n2C)c1ccccc1 -7.35%
CC(C)NC(=O)C1CCN(C(=O)c2cnn(-c3ccccc3)c2-n2cccc2)CC1 -9.36%
Cc1nc2c(C(=O)NCCc3ccc(Cl)cc3)cnn2c(C)c1Cc1ccc(F)cc1 -2.61%
COc1ccc(N2C(N)=C(C#N)C(c3cc(CN4CCOCC4)cs3)C3=C2CCCC3=O)cc1 (stereo not given) -17%
Cc1ccc(NS(=O)(=O)c2ccc3c(c2)C(C(C)C)C(=O)N3)cc1C (stereo not given) -20.8%
CCN(Cc1ccccc1)C(=O)Cn1c(=O)n(-c2cccc(C)c2)c(=O)c2c1c1cc(OC)ccc1n2C 2.17%
CCOC(=O)C1=C(CN2CCN(C)CC2)NC(=O)NC1c1ccc(F)cc1 (stereo not given) -14.1%
CC(C)c1ccc(OCC(=O)NCC(c2ccc(Cl)cc2)N2CCOCC2)cc1 (stereo not given) -9.35%
CCCSc1nc2sc3c(c2c(=O)n1-c1ccc(C)c(Cl)c1)CCN(C(C)=O)C3 -16.5%
Cn1nc(C(=O)NCCc2ccc(Cl)cc2)c2c1-c1ccccc1SC2 -10.7%
CN(C(=O)c1cc2nc(-c3ccc4c(c3)OCO4)cc(C(F)(F)F)n2n1)c1ccc(OC(F)(F)F)cc1 -15.2%
COc1ccc(NS(=O)(=O)c2ccc(-n3cccn3)cc2)cc1OC -40%
COc1ccccc1N1CCN(C(=O)c2ccc(Nc3nc4ccccc4n4nnnc34)cc2)CC1 -9.22%
CCn1c(=O)n(CC)c2cc(N3CCCC3)c(NC(=O)Nc3cc(C)cc(C)c3)cc21 -14.4%
COc1ccc(S(=O)(=O)c2c(O)c(C)cc(NC(=O)c3ccccc3)c2C(C)C)cc1 -17.9%
O=C(Nc1ccccc1F)c1oc2ccccc2c1NC(=O)c1c(F)cccc1F -2.04%
Cc1cccn2c(=O)cc(COc3cccc(NC(=O)c4cccc(Cl)c4)c3)nc12 -5.66%
